The supplement of paper PMC9151546
Most values come without repeats; read them as rough.

What was measured:
[1] = test system: CHO-K1; assay: hypodiploid nuclei frequency (% of nucleated events); higher = more hypodiploid events (aneugenic)
Method: (§1)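 Flow-cytometric in vitro micronucleus assay (Litron MicroFlow) in CHO-K1 cells in 96-well plates, 19 concentrations (4.5-200 µM, n=1 per concentration). Without S9, cells were exposed for 24 h and sampled at 48 h. With Aroclor 1254-induced rat liver S9, cells were exposed for 3-4 h and sampled at 27-28 h. Read-outs are %MN and %hypodiploid nuclei relative to nucleated events, and relative survival as the nuclei-to-bead ratio versus the 1% DMSO vehicle control (x100).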

[2] = test system: CHO-K1; assay: micronucleus frequency (% of nucleated events); higher = more micronuclei (genotoxic)
[3] = test system: CHO-K1; assay: relative survival (nuclei to bead ratio vs DMSO control) (% of vehicle control); higher = more surviving cells
Method: as §1
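Throughout, for hypodiploid nuclei frequency (% of nucleated events): hypodiploid nuclei gated on a flow cytometer with 488 nm excitation after SYTOX Green staining, cultures at 37 °C, positive controls vinblastine without S9 and cyclophosphamide with S9.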
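Throughout, for micronucleus frequency (% of nucleated events): cells lysed with nuclei stained by SYTOX Green, then micronucleus-gated events counted against nucleated events by flow cytometry with 488 nm excitation.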
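Throughout, for relative survival (nuclei to bead ratio vs DMSO control): Lysed-cell nuclei stained with SYTOX Green and counted against counting beads by flow cytometry at 488 nm excitation, with vinblastine (no S9) and cyclophosphamide (plus S9) as positive controls.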

CCCCCCCCCC(=O)O [Decanoic acid]
Settings | hypodiploid nuclei frequency, [1] [%] | micronucleus frequency, [2] [%] | relative survival, [3]
concentration: 4.5 (µM), S9 metabolic activation: with S9, exposure time: 3-4 hours | 0.2 | 1.16 | 106
concentration: 4.5 (µM), S9 metabolic activation: without S9, exposure time: 24 hours | 0.56 | 1.18 | 83.3
concentration: 5.63 (µM), S9 metabolic activation: with S9, exposure time: 3-4 hours | 0.3 | 1.24 | 118
concentration: 5.63 (µM), S9 metabolic activation: without S9, exposure time: 24 hours | 0.78 | 1.22 | 96
concentration: 7.04 (µM), S9 metabolic activation: with S9, exposure time: 3-4 hours | 0.22 | 1.3 | 105
concentration: 7.04 (µM), S9 metabolic activation: without S9, exposure time: 24 hours | 0.68 | 1.34 | 104
concentration: 8.8 (µM), S9 metabolic activation: with S9, exposure time: 3-4 hours | 0.18 | 1.1 | 111
concentration: 8.8 (µM), S9 metabolic activation: without S9, exposure time: 24 hours | 0.48 | 1.28 | 123
concentration: 11 (µM), S9 metabolic activation: with S9, exposure time: 3-4 hours | 0.1 | 1.14 | 113
concentration: 11 (µM), S9 metabolic activation: without S9, exposure time: 24 hours | 0.54 | 1.7 | 120
concentration: 13.7 (µM), S9 metabolic activation: with S9, exposure time: 3-4 hours | 0.28 | 1.5 | 96.5
concentration: 13.7 (µM), S9 metabolic activation: without S9, exposure time: 24 hours | 0.58 | 1.4 | 108
concentration: 17.2 (µM), S9 metabolic activation: with S9, exposure time: 3-4 hours | 0.16 | 1.58 | 91.5
concentration: 17.2 (µM), S9 metabolic activation: without S9, exposure time: 24 hours | 0.54 | 1.66 | 104
concentration: 21.5 (µM), S9 metabolic activation: with S9, exposure time: 3-4 hours | 0.18 | 1.3 | 91.7
concentration: 21.5 (µM), S9 metabolic activation: without S9, exposure time: 24 hours | 0.48 | 1.56 | 114
concentration: 26.8 (µM), S9 metabolic activation: with S9, exposure time: 3-4 hours | 0.18 | 1.1 | 136
concentration: 26.8 (µM), S9 metabolic activation: without S9, exposure time: 24 hours | 0.8 | 1.66 | 123
concentration: 33.6 (µM), S9 metabolic activation: with S9, exposure time: 3-4 hours | 0.34 | 1.36 | 127
concentration: 33.6 (µM), S9 metabolic activation: without S9, exposure time: 24 hours | 0.68 | 1.5 | 113
concentration: 41.9 (µM), S9 metabolic activation: with S9, exposure time: 3-4 hours | 0.24 | 1.1 | 122
concentration: 41.9 (µM), S9 metabolic activation: without S9, exposure time: 24 hours | 0.5 | 1.74 | 109
concentration: 52.4 (µM), S9 metabolic activation: with S9, exposure time: 3-4 hours | 0.1 | 1.48 | 117
concentration: 52.4 (µM), S9 metabolic activation: without S9, exposure time: 24 hours | 0.66 | 1.3 | 129
concentration: 65.5 (µM), S9 metabolic activation: with S9, exposure time: 3-4 hours | 0.08 | 1.2 | 107
concentration: 65.5 (µM), S9 metabolic activation: without S9, exposure time: 24 hours | 0.72 | 1.38 | 131
concentration: 81.9 (µM), S9 metabolic activation: with S9, exposure time: 3-4 hours | 0.08 | 1.18 | 124
concentration: 81.9 (µM), S9 metabolic activation: without S9, exposure time: 24 hours | 0.74 | 1.7 | 127
concentration: 102 (µM), S9 metabolic activation: with S9, exposure time: 3-4 hours | 0.14 | 1.18 | 104
concentration: 102 (µM), S9 metabolic activation: without S9, exposure time: 24 hours | 0.84 | 1.42 | 106
concentration: 128 (µM), S9 metabolic activation: with S9, exposure time: 3-4 hours | 0.28 | 1.2 | 123
concentration: 128 (µM), S9 metabolic activation: without S9, exposure time: 24 hours | 0.74 | 1.44 | 110
concentration: 160 (µM), S9 metabolic activation: with S9, exposure time: 3-4 hours | 0.16 | 1.82 | 92.8
concentration: 160 (µM), S9 metabolic activation: without S9, exposure time: 24 hours | 1.08 | 1.48 | 95
concentration: 200 (µM), S9 metabolic activation: with S9, exposure time: 3-4 hours | 0.06 | 1.52 | 96.9
concentration: 200 (µM), S9 metabolic activation: without S9, exposure time: 24 hours | 1.24 | 1.6 | 100
